The other results are listed elsewhere or left out.

For 40 sequences, binding signal results are on record in publication PMC12820563, “FoxP3 forms a head-to-head dimer in vivo and stabilizes its multimerization on adjacent microsatellites”.

The target of the assay is T1, MBP-FoxP1dN (Mus musculus, UniProt P58462 326-579).
T1 sequence: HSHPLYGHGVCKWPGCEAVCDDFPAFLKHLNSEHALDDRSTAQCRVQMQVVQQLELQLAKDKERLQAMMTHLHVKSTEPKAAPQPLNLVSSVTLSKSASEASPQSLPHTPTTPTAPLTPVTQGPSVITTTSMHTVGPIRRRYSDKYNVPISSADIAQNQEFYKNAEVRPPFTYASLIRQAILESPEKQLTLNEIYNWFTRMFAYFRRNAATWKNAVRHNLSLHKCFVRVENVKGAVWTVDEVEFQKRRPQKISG
As to the kind of experiment: PD-seq (MBP pull-down with sequencing); 20 mM Tris-HCl pH 7.5, 100 mM NaCl, 1.5 mM MgCl2, 0.4 uM protein, 0.1 uM dsDNA library, 30 min, room temperature, amylose pull-down; high values mean tight binding. As to conditions: protein: recombinant; tags: His6-MBP; chain copies: 2; dsDNA, one strand shown. Summed up:
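E. coli-expressed mouse FoxP3 or FoxP1 fragment, N-terminus removed and tagged with His6-MBP, was used at 0.4 µM against 0.1 µM of a Klenow-filled degenerate double-stranded DNA library. After 30 min at room temperature in Tris pH 7.5 buffer with NaCl and MgCl2, complexes were pulled down on amylose resin and washed three times. Binding is pull-down over input reads-per-million enrichment from pooled replicates of the proteinase K-released, PCR-barcoded, Illumina-sequenced DNA.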
As for “GATGATTGTTCTCCCAGCTGATGAATTTCTGCACTCGAGTAAACAAATTTTCCTAATCTTTCTGTTCAAGCGCCATCTAC”, the binding signal is 0.936 RPM ratio (pull-down/input).
As for “GATGATTGTTCTCCCAGCTGATGAATTGTTATTTTCGAGTAAACAAATTTTCCTAATCTTTCTGTTCAAGCGCCATCTAC”, the figure is 3.47 RPM ratio (pull-down/input).
The figure for “GATGATTGTTCTCCCAGCTGATGAATTGAGTACATCGAGTAAACAAATTTTCCTAATCTTTCTGTTCAAGCGCCATCTAC” is 1.05 RPM ratio (pull-down/input); for “GATGATTGTTCTCCCAGCTGATGAATTGGCATCCTCGAGTAAACAAATTTTCCTAATCTTTCTGTTCAAGCGCCATCTAC” it is 1.13 RPM ratio (pull-down/input).
For “GATGATTGTTCTCCCAGCTGATGAATTGGGGAATTCGAGTAAACAAATTTTCCTAATCTTTCTGTTCAAGCGCCATCTAC”, the binding signal is 0.883 RPM ratio (pull-down/input).
The figure for “GATGATTGTTCTCCCAGCTGATGAATTCAGAGTCTCGAGTAAACAAATTTTCCTAATCTTTCTGTTCAAGCGCCATCTAC” is 0.756 RPM ratio (pull-down/input); for “GATGATTGTTCTCCCAGCTGATGAATTACCTTACTCGAGTAAACAAATTTTCCTAATCTTTCTGTTCAAGCGCCATCTAC” it is 0.996 RPM ratio (pull-down/input); for “GATGATTGTTCTCCCAGCTGATGAATTTGTTAGTTCGAGTAAACAAATTTTCCTAATCTTTCTGTTCAAGCGCCATCTAC” it is 1.78 RPM ratio (pull-down/input).
As for “GATGATTGTTCTCCCAGCTGATGAATTACACCGCTCGAGTAAACAAATTTTCCTAATCTTTCTGTTCAAGCGCCATCTAC”, the figure is 1 RPM ratio (pull-down/input); as for “GATGATTGTTCTCCCAGCTGATGAATTTACGTTATCGAGTAAACAAATTTTCCTAATCTTTCTGTTCAAGCGCCATCTAC”, 1.44 RPM ratio (pull-down/input); as for “GATGATTGTTCTCCCAGCTGATGAATTGGCGAAGTCGAGTAAACAAATTTTCCTAATCTTTCTGTTCAAGCGCCATCTAC”, 0.806 RPM ratio (pull-down/input).
As for “GATGATTGTTCTCCCAGCTGATGAATTGTAGCCTTCGAGTAAACAAATTTTCCTAATCTTTCTGTTCAAGCGCCATCTAC”, the figure is 0.968 RPM ratio (pull-down/input); as for “GATGATTGTTCTCCCAGCTGATGAATTAGCTCACTCGAGTAAACAAATTTTCCTAATCTTTCTGTTCAAGCGCCATCTAC”, 0.816 RPM ratio (pull-down/input).
For “GATGATTGTTCTCCCAGCTGATGAATTTCCCGGCTCGAGTAAACAAATTTTCCTAATCTTTCTGTTCAAGCGCCATCTAC”, the binding signal was 0.708 RPM ratio (pull-down/input).
As for “GATGATTGTTCTCCCAGCTGATGAATTTCACAGCTCGAGTAAACAAATTTTCCTAATCTTTCTGTTCAAGCGCCATCTAC”, the figure is 0.793 RPM ratio (pull-down/input).
As for “GATGATTGTTCTCCCAGCTGATGAATTTCTTTTTTCGAGTAAACAAATTTTCCTAATCTTTCTGTTCAAGCGCCATCTAC”, the figure is 0.916 RPM ratio (pull-down/input); as for “GATGATTGTTCTCCCAGCTGATGAATTAATCTCTTCGAGTAAACAAATTTTCCTAATCTTTCTGTTCAAGCGCCATCTAC”, 0.923 RPM ratio (pull-down/input); as for “GATGATTGTTCTCCCAGCTGATGAATTGACTAAATCGAGTAAACAAATTTTCCTAATCTTTCTGTTCAAGCGCCATCTAC”, 1.22 RPM ratio (pull-down/input).
As for “GATGATTGTTCTCCCAGCTGATGAATTGCAGACCTCGAGTAAACAAATTTTCCTAATCTTTCTGTTCAAGCGCCATCTAC”, the figure is 0.943 RPM ratio (pull-down/input); as for “GATGATTGTTCTCCCAGCTGATGAATTGGAGATCTCGAGTAAACAAATTTTCCTAATCTTTCTGTTCAAGCGCCATCTAC”, 0.778 RPM ratio (pull-down/input).
For “GATGATTGTTCTCCCAGCTGATGAATTACGCTCTTCGAGTAAACAAATTTTCCTAATCTTTCTGTTCAAGCGCCATCTAC”, the binding signal is 0.974 RPM ratio (pull-down/input).
Turning to “GATGATTGTTCTCCCAGCTGATGAATTACTTTATTCGAGTAAACAAATTTTCCTAATCTTTCTGTTCAAGCGCCATCTAC”, the binding signal is 1.15 RPM ratio (pull-down/input).
Take “GATGATTGTTCTCCCAGCTGATGAATTAAATTTTTCGAGTAAACAAATTTTCCTAATCTTTCTGTTCAAGCGCCATCTAC”: the binding signal was 0.967 RPM ratio (pull-down/input).
The figure for “GATGATTGTTCTCCCAGCTGATGAATTAGTCGGGTCGAGTAAACAAATTTTCCTAATCTTTCTGTTCAAGCGCCATCTAC” is 0.826 RPM ratio (pull-down/input); for “GATGATTGTTCTCCCAGCTGATGAATTACGAAACTCGAGTAAACAAATTTTCCTAATCTTTCTGTTCAAGCGCCATCTAC” it is 1.06 RPM ratio (pull-down/input).
Take “GATGATTGTTCTCCCAGCTGATGAATTCAGGGACTCGAGTAAACAAATTTTCCTAATCTTTCTGTTCAAGCGCCATCTAC”: the binding signal was 0.719 RPM ratio (pull-down/input).
The figure for “GATGATTGTTCTCCCAGCTGATGAATTGACACTATCGAGTAAACAAATTTTCCTAATCTTTCTGTTCAAGCGCCATCTAC” is 1.33 RPM ratio (pull-down/input); for “GATGATTGTTCTCCCAGCTGATGAATTCAAGAAATCGAGTAAACAAATTTTCCTAATCTTTCTGTTCAAGCGCCATCTAC” it is 0.981 RPM ratio (pull-down/input); for “GATGATTGTTCTCCCAGCTGATGAATTGATGCCTTCGAGTAAACAAATTTTCCTAATCTTTCTGTTCAAGCGCCATCTAC” it is 1.28 RPM ratio (pull-down/input).
As for “GATGATTGTTCTCCCAGCTGATGAATTTTAGCGCTCGAGTAAACAAATTTTCCTAATCTTTCTGTTCAAGCGCCATCTAC”, the figure is 0.826 RPM ratio (pull-down/input); as for “GATGATTGTTCTCCCAGCTGATGAATTCCAGTATTCGAGTAAACAAATTTTCCTAATCTTTCTGTTCAAGCGCCATCTAC”, 0.979 RPM ratio (pull-down/input).
Consider “GATGATTGTTCTCCCAGCTGATGAATTGAGGGGGTCGAGTAAACAAATTTTCCTAATCTTTCTGTTCAAGCGCCATCTAC”, for which the binding signal was 0.767 RPM ratio (pull-down/input).
As for “GATGATTGTTCTCCCAGCTGATGAATTGCCATCATCGAGTAAACAAATTTTCCTAATCTTTCTGTTCAAGCGCCATCTAC”, the figure is 1.1 RPM ratio (pull-down/input); as for “GATGATTGTTCTCCCAGCTGATGAATTAAAAGGGTCGAGTAAACAAATTTTCCTAATCTTTCTGTTCAAGCGCCATCTAC”, 0.793 RPM ratio (pull-down/input); as for “GATGATTGTTCTCCCAGCTGATGAATTTAACACATCGAGTAAACAAATTTTCCTAATCTTTCTGTTCAAGCGCCATCTAC”, 1.18 RPM ratio (pull-down/input).
As for “GATGATTGTTCTCCCAGCTGATGAATTGACTCAGTCGAGTAAACAAATTTTCCTAATCTTTCTGTTCAAGCGCCATCTAC”, the figure is 0.938 RPM ratio (pull-down/input); as for “GATGATTGTTCTCCCAGCTGATGAATTAACCGCTTCGAGTAAACAAATTTTCCTAATCTTTCTGTTCAAGCGCCATCTAC”, 0.885 RPM ratio (pull-down/input); as for “GATGATTGTTCTCCCAGCTGATGAATTGCGCATCTCGAGTAAACAAATTTTCCTAATCTTTCTGTTCAAGCGCCATCTAC”, 1.43 RPM ratio (pull-down/input).
The figure for “GATGATTGTTCTCCCAGCTGATGAATTTGGCCGGTCGAGTAAACAAATTTTCCTAATCTTTCTGTTCAAGCGCCATCTAC” is 0.768 RPM ratio (pull-down/input).
Turning to “GATGATTGTTCTCCCAGCTGATGAATTCGAAGACTCGAGTAAACAAATTTTCCTAATCTTTCTGTTCAAGCGCCATCTAC”, the binding signal was 0.814 RPM ratio (pull-down/input).
